# In all, about 81,000 sequences were measured (“one-hybrid fitness for binding parS DNA”: median about -0.17, highest 2% from about 0.51 on). The list shows a part of the results.
# B1: Caulobacter ParB omega fusion; a variant is named by its letters at X, in order, B8GW30 (parent)
# chain: MESVVVGEPGMSEGRRGLGRGLSALLGEVDAAPAQAPGEQLGGSREAPIEILQRNPDQPRRTFREEDLEDLSNSIREKGVLQPILVRPSPDTAGEYQIVAGERAWRAAQRAGLKTVPIMVRELDDLAVLEIGIIENVQRADLNVLEEALSYKVLMEKFERTQENIAQTIGKSXSHVANXMRLLXLPDEVQSYLVSGELTAXHARAIAAAADPVALAKQIIEGGLSVRETEALARKAPNLSAGKSKGGRPPRVKDTDTQALESDLSSVLGLDVSIDHRGSTGTLTITYATLEQLDDLCNRLTRGI
# Variants of: B1
# Assay: one-hybrid fitness for binding parS DNA (scaled: cognate 1, non-cognate 0); higher = stronger binding
# Conditions: with parS DNA site
# How it was run: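 On M9-minus-histidine containing 0.1 mM IPTG and 5 mM 3-AT, E. coli USO cells with a HIS3 reporter, site 19 bp from the promoter, grew 48 hours at 37°C to select Caulobacter ParB libraries randomised at four specificity codons. Plasmids from before and after were Illumina-sequenced, with three replicate libraries pooled and variants under 10 reads left out. Fitness is the log change in variant-to-wild-type read ratio, rescaled against cognate and non-cognate.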
row,Variant,one-hybrid fitness for binding parS DNA
1,RKHS,0.832
2,LSSA,≤ 0.2
3,NFPC,≤ 0.2
4,HNMF,≤ 0.2
5,IVEN,≤ 0.2
6,IDPI,≤ 0.2
7,RNLS,0.895
8,DIML,≤ 0.2
9,QAGQ,≤ 0.2
10,AVCR,≤ 0.2
11,THVL,≤ 0.2
12,TNEH,≤ 0.2
13,LDKI,≤ 0.2
14,SYQE,≤ 0.2
15,VPLP,≤ 0.2
16,TEPA,≤ 0.2
17,KFIG,≤ 0.2
18,KRLV,≤ 0.2
19,CTIR,≤ 0.2
20,LNKS,≤ 0.2
21,NLYI,≤ 0.2
22,CSIS,≤ 0.2
23,PADA,≤ 0.2
24,KWFG,≤ 0.2

row,Variant,one-hybrid fitness for binding parS DNA
1,SCPL,≤ 0.2
2,RINL,≤ 0.2
3,LYYF,≤ 0.2
4,MNIT,≤ 0.2
5,MLYL,≤ 0.2
6,CQYS,≤ 0.2
7,KSDD,≤ 0.2
8,AHLV,≤ 0.2
9,KKLC,≤ 0.2
10,RQHV,≤ 0.2
11,QSQY,≤ 0.2
12,WYHS,≤ 0.2
13,EWYS,≤ 0.2
14,EMKR,≤ 0.2
15,DRVK,≤ 0.2
16,RATI,≤ 0.2
17,QRGW,≤ 0.2
18,QSPM,≤ 0.2
19,TRGK,≤ 0.2
20,TVNI,≤ 0.2
21,IFLD,≤ 0.2
22,APNF,≤ 0.2
23,LVTH,≤ 0.2
24,DGFR,≤ 0.2

row,Variant,one-hybrid fitness for binding parS DNA
1,NEGR,≤ 0.2
2,TYND,≤ 0.2
3,IAEL,≤ 0.2
4,RNLM,≤ 0.2
5,ADLN,≤ 0.2
6,WNPS,≤ 0.2
7,KRCC,≤ 0.2
8,TYPT,≤ 0.2
9,TTKY,≤ 0.2
10,SVQW,≤ 0.2
11,DSQR,≤ 0.2
12,DPVI,≤ 0.2
13,DADG,≤ 0.2
14,FNEI,≤ 0.2
15,NYTG,≤ 0.2
16,AAEV,≤ 0.2
17,KILA,≤ 0.2
18,YWSC,≤ 0.2
19,VPCR,≤ 0.2
20,DIVG,≤ 0.2
21,RLFP,≤ 0.2
22,RCWT,0.908
23,HGYG,≤ 0.2
24,PLGT,≤ 0.2

row,Variant,one-hybrid fitness for binding parS DNA
1,LTAF,≤ 0.2
2,QTWD,≤ 0.2
3,ADPL,≤ 0.2
4,DGWS,≤ 0.2
5,IETV,≤ 0.2
6,NIVN,≤ 0.2
7,SYNN,≤ 0.2
8,ANDT,≤ 0.2
9,TRRC,≤ 0.2
10,TNYG,≤ 0.2
11,TMMG,≤ 0.2
12,WYER,≤ 0.2
13,PKHH,≤ 0.2
14,LTWM,≤ 0.2
15,RPIK,≤ 0.2
16,GKRC,≤ 0.2
17,DHSS,≤ 0.2
18,WCTR,≤ 0.2
19,PAQP,≤ 0.2
20,MARC,≤ 0.2
21,NLDK,≤ 0.2
22,WSDL,≤ 0.2
23,QQEC,≤ 0.2
24,NDNA,≤ 0.2

row,Variant,one-hybrid fitness for binding parS DNA
1,MEPR,≤ 0.2
2,ISTR,≤ 0.2
3,RWAE,≤ 0.2
4,EKQR,≤ 0.2
5,GSDF,≤ 0.2
6,TISW,≤ 0.2
7,AFIM,≤ 0.2
8,MPSK,≤ 0.2
9,MSLR,≤ 0.2
10,RNLT,0.683
11,AIHS,≤ 0.2
12,SQSV,≤ 0.2
13,RKLK,≤ 0.2
14,ENVC,≤ 0.2
15,GDMV,≤ 0.2
16,LGDI,≤ 0.2
17,QFCA,≤ 0.2
18,ILRG,≤ 0.2
19,ACHA,≤ 0.2
20,CAPL,≤ 0.2
21,KSKA,≤ 0.2
22,PMIG,≤ 0.2
23,YQIT,≤ 0.2
24,YFFS,≤ 0.2

row,Variant,one-hybrid fitness for binding parS DNA
1,HCNI,≤ 0.2
2,PPRD,≤ 0.2
3,PMYN,≤ 0.2
4,CTKR,≤ 0.2
5,IDST,≤ 0.2
6,RHCA,0.55
7,LMKS,≤ 0.2
8,RLFD,≤ 0.2
9,LWKG,≤ 0.2
10,TTFR,≤ 0.2
11,AAFF,≤ 0.2
12,TISI,≤ 0.2
13,LRGG,≤ 0.2
14,RPAA,≤ 0.2
15,REWI,≤ 0.2
16,ISCL,≤ 0.2
17,KLFR,≤ 0.2
18,CTQS,≤ 0.2
19,ALPR,≤ 0.2
20,QMVQ,≤ 0.2
21,SHGW,≤ 0.2
22,YSPG,≤ 0.2
23,PRNN,≤ 0.2
24,RVQI,≤ 0.2

row,Variant,one-hybrid fitness for binding parS DNA
1,YRRA,≤ 0.2
2,QRII,≤ 0.2
3,ILNV,≤ 0.2
4,VDSW,≤ 0.2
5,QCDS,≤ 0.2
6,KQDS,≤ 0.2
7,QEQF,≤ 0.2
8,RCWF,0.363
9,ATKA,≤ 0.2
10,EDSS,≤ 0.2
11,LTLF,≤ 0.2
12,CLKA,≤ 0.2
13,RIEK,≤ 0.2
14,WHMG,≤ 0.2
15,RAAH,≤ 0.2
16,KYES,≤ 0.2
17,QSHP,≤ 0.2
18,LVSM,≤ 0.2
19,LPPT,≤ 0.2
20,DLCL,≤ 0.2
21,TNHK,≤ 0.2
22,PCSR,≤ 0.2
23,MLLS,≤ 0.2
24,IWPT,≤ 0.2

row,Variant,one-hybrid fitness for binding parS DNA
1,MLQH,≤ 0.2
2,TMGT,≤ 0.2
3,RSHQ,≤ 0.2
4,CRNC,≤ 0.2
5,VMDI,≤ 0.2
6,QVMW,≤ 0.2
7,HTLK,≤ 0.2
8,YTWC,≤ 0.2
9,VHTT,≤ 0.2
10,KKSG,≤ 0.2
11,SERC,≤ 0.2
12,YIDG,≤ 0.2
13,QSIL,≤ 0.2
14,RASG,1
15,TGAF,≤ 0.2
16,HLAA,≤ 0.2
17,NKDD,≤ 0.2
18,EADR,≤ 0.2
19,SISS,≤ 0.2
20,GPQL,≤ 0.2
21,IGQT,≤ 0.2
22,SSYS,≤ 0.2
23,YQMF,≤ 0.2
24,CSQL,≤ 0.2

row,Variant,one-hybrid fitness for binding parS DNA
1,RTNS,0.874
2,PLFR,≤ 0.2
3,DSRN,≤ 0.2
4,KTIT,≤ 0.2
5,AGPD,≤ 0.2
6,EPWV,≤ 0.2
7,PSPC,≤ 0.2
8,THGE,≤ 0.2
9,FPTM,≤ 0.2
10,CHTY,≤ 0.2
11,NKAY,≤ 0.2
12,IPAF,≤ 0.2
13,ETRH,≤ 0.2
14,DNRM,≤ 0.2
15,QPLN,≤ 0.2
16,AQRR,≤ 0.2
17,LPNP,≤ 0.2
18,RHIN,≤ 0.2
19,EIKV,≤ 0.2
20,ARPY,≤ 0.2
21,RFHW,≤ 0.2
22,YQRC,≤ 0.2
23,DYIT,≤ 0.2
24,LLKM,≤ 0.2

row,Variant,one-hybrid fitness for binding parS DNA
1,SMER,≤ 0.2
2,RELC,≤ 0.2
3,RRWA,0.834
4,VSYS,≤ 0.2
5,AWVK,≤ 0.2
6,MFTS,≤ 0.2
7,QENM,≤ 0.2
8,HPKW,≤ 0.2
9,ATYE,≤ 0.2
10,IGLR,≤ 0.2
11,CIPT,≤ 0.2
12,TLPD,≤ 0.2
13,YEKT,≤ 0.2
14,RAWN,0.384
15,AATL,≤ 0.2
16,KTAT,≤ 0.2
17,HNWA,≤ 0.2
18,LCFD,≤ 0.2
19,DMES,≤ 0.2
20,GVVD,≤ 0.2
21,LVFR,≤ 0.2
22,RLID,≤ 0.2
23,STKR,≤ 0.2
24,RFCN,0.375

row,Variant,one-hybrid fitness for binding parS DNA
1,NHSC,≤ 0.2
2,YMYC,≤ 0.2
3,LSYA,≤ 0.2
4,CIVG,≤ 0.2
5,RAYE,≤ 0.2
6,RPCG,≤ 0.2
7,RKLV,≤ 0.2
8,RAKQ,≤ 0.2
9,GPCD,≤ 0.2
10,RMVM,0.361
11,CRTC,≤ 0.2
12,RCSD,≤ 0.2
13,QMNF,≤ 0.2
14,TSTW,≤ 0.2
15,FSIP,≤ 0.2
16,YSNN,≤ 0.2
17,PGWS,≤ 0.2
18,HYIA,≤ 0.2
19,DFEF,≤ 0.2
20,CVRD,≤ 0.2
21,VMRV,≤ 0.2
22,RYSA,0.535
23,MSRL,≤ 0.2
24,GGDV,≤ 0.2

row,Variant,one-hybrid fitness for binding parS DNA
1,TVLT,≤ 0.2
2,EEFP,≤ 0.2
3,TCFL,≤ 0.2
4,PNPV,≤ 0.2
5,DLIS,≤ 0.2
6,ICRS,≤ 0.2
7,QMSS,≤ 0.2
8,GYEL,≤ 0.2
9,GGMT,≤ 0.2
10,ALML,≤ 0.2
11,WRDW,≤ 0.2
12,WAPM,≤ 0.2
13,ASDE,≤ 0.2
14,LING,≤ 0.2
15,MDWC,≤ 0.2
16,FWQR,≤ 0.2
17,ERSR,≤ 0.2
18,SQIS,≤ 0.2
19,KTEF,≤ 0.2
20,HFIS,≤ 0.2
21,HQYG,≤ 0.2
22,YDDS,≤ 0.2
23,STRA,≤ 0.2
24,CMLC,≤ 0.2

row,Variant,one-hybrid fitness for binding parS DNA
1,LCVT,≤ 0.2
2,HDSG,≤ 0.2
3,PKTE,≤ 0.2
4,CSYS,≤ 0.2
5,GHMT,≤ 0.2
6,GYNT,≤ 0.2
7,GMKS,≤ 0.2
8,GKTD,≤ 0.2
9,NNKC,≤ 0.2
10,QPWL,≤ 0.2
11,SRIF,≤ 0.2
12,IYLM,≤ 0.2
13,NTNM,≤ 0.2
14,QDAR,≤ 0.2
15,AYSF,≤ 0.2
16,RGVS,0.516
17,YCTN,≤ 0.2
18,YNMS,≤ 0.2

# From a collection of fitness landscapes (doi:10.1016/j.celrep.2020.107928)
